{"source": "paper PMC9911399", "about": "“Two distinct binding modes provide the RNA-binding protein RbFox with extraordinary sequence specificity”", "binders": {"B1": {"name": "UCGAUCA (DNA:RNA)", "RNA": "GGGAGACCGGAAUUCAGAUUGUCCUCGAUCAUUAAAUCCCGUCGUAGCCACCA", "DNA 1": "CAATCTGAATTCCGGTCTCCC", "DNA 2": "TGGTGGCTACGACGGGATT"}, "B2": {"name": "CGGAUAA (DNA:RNA)", "RNA": "B1 RNA with U25C, C26G, C30A", "DNA 1": "CAATCTGAATTCCGGTCTCCC", "DNA 2": "TGGTGGCTACGACGGGATT"}, "B3": {"name": "ACAUAAG (DNA:RNA)", "RNA": "B1 RNA with U25A, G27A, A28U, U29A, C30A, A31G", "DNA 1": "CAATCTGAATTCCGGTCTCCC", "DNA 2": "TGGTGGCTACGACGGGATT"}, "B4": {"name": "UAUAUCU (DNA:RNA)", "RNA": "B1 RNA with C26A, G27U, A31U", "DNA 1": "CAATCTGAATTCCGGTCTCCC", "DNA 2": "TGGTGGCTACGACGGGATT"}, "B5": {"name": "UCGCUCA (DNA:RNA)", "RNA": "B1 RNA with A28C", "DNA 1": "CAATCTGAATTCCGGTCTCCC", "DNA 2": "TGGTGGCTACGACGGGATT"}, "B6": {"name": "CUGGAUC (DNA:RNA)", "RNA": "B1 RNA with U25C, C26U, A28G, U29A, C30U, A31C", "DNA 1": "CAATCTGAATTCCGGTCTCCC", "DNA 2": "TGGTGGCTACGACGGGATT"}, "B7": {"name": "UUGGGCA (DNA:RNA)", "RNA": "B1 RNA with C26U, A28G, U29G", "DNA 1": "CAATCTGAATTCCGGTCTCCC", "DNA 2": "TGGTGGCTACGACGGGATT"}, "B8": {"name": "ACUGAGC (DNA:RNA)", "RNA": "B1 RNA with U25A, G27U, A28G, U29A, C30G, A31C", "DNA 1": "CAATCTGAATTCCGGTCTCCC", "DNA 2": "TGGTGGCTACGACGGGATT"}, "B9": {"name": "GUUUAGC (DNA:RNA)", "RNA": "GGGAGACCGGAAUUCAGAUUGUCCGUUUAGCUUAAAUCCCGUCGUAGCCACCA", "DNA 1": "CAATCTGAATTCCGGTCTCCC", "DNA 2": "TGGTGGCTACGACGGGATT"}, "B10": {"name": "GAUGAAU (DNA:RNA)", "RNA": "B9 RNA with U26A, U28G, G30A, C31U", "DNA 1": "CAATCTGAATTCCGGTCTCCC", "DNA 2": "TGGTGGCTACGACGGGATT"}, "B11": {"name": "ACGAUCC (DNA:RNA)", "RNA": "B1 RNA with U25A, A31C", "DNA 1": "CAATCTGAATTCCGGTCTCCC", "DNA 2": "TGGTGGCTACGACGGGATT"}, "B12": {"name": "UCACGAU (DNA:RNA)", "RNA": "B1 RNA with G27A, A28C, U29G, C30A, A31U", "DNA 1": "CAATCTGAATTCCGGTCTCCC", "DNA 2": "TGGTGGCTACGACGGGATT"}, "B13": {"name": "UCGACCC (DNA:RNA)", "RNA": "B1 RNA with U29C, A31C", "DNA 1": "CAATCTGAATTCCGGTCTCCC", "DNA 2": "TGGTGGCTACGACGGGATT"}, "B14": {"name": "UCGCGGC (DNA:RNA)", "RNA": "B1 RNA with A28C, U29G, C30G, A31C", "DNA 1": "CAATCTGAATTCCGGTCTCCC", "DNA 2": "TGGTGGCTACGACGGGATT"}, "B15": {"name": "UGGUGAG (DNA:RNA)", "RNA": "B1 RNA with C26G, A28U, U29G, C30A, A31G", "DNA 1": "CAATCTGAATTCCGGTCTCCC", "DNA 2": "TGGTGGCTACGACGGGATT"}, "B16": {"name": "GUGAGGA (DNA:RNA)", "RNA": "B9 RNA with U27G, U28A, A29G, C31A", "DNA 1": "CAATCTGAATTCCGGTCTCCC", "DNA 2": "TGGTGGCTACGACGGGATT"}, "B17": {"name": "GAUCUGG (DNA:RNA)", "RNA": "B9 RNA with U26A, U28C, A29U, C31G", "DNA 1": "CAATCTGAATTCCGGTCTCCC", "DNA 2": "TGGTGGCTACGACGGGATT"}, "B18": {"name": "AGUGGCA (DNA:RNA)", "RNA": "B1 RNA with U25A, C26G, G27U, A28G, U29G", "DNA 1": "CAATCTGAATTCCGGTCTCCC", "DNA 2": "TGGTGGCTACGACGGGATT"}, "B19": {"name": "AAGAUGC (DNA:RNA)", "RNA": "B1 RNA with U25A, C26A, C30G, A31C", "DNA 1": "CAATCTGAATTCCGGTCTCCC", "DNA 2": "TGGTGGCTACGACGGGATT"}, "B20": {"name": "GCCCAAA (DNA:RNA)", "RNA": "B9 RNA with U26C, U27C, U28C, G30A, C31A", "DNA 1": "CAATCTGAATTCCGGTCTCCC", "DNA 2": "TGGTGGCTACGACGGGATT"}}, "note": "Positions count from the first letter of the chain named. The list shows a part of the results."}
{"target": "T1, RBFOX1 RRM (Homo sapiens, UniProt Q9NWB1 109-208)", "T1 sequence": "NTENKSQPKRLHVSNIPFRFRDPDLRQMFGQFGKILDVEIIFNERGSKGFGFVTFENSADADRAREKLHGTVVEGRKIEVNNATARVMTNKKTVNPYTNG", "experiment": "EMSA; HiTS-Eq, 1 nM pool, 10 min; buffer printed only for the single-RNA assays: 10 mM Tris pH 7.5, 150 mM NaCl, 3.4 mM EDTA, 0.001% NP-40, 30 C", "settings": "tags: His6 N-terminal (pET28a); label: 5' 32P", "in_short": "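Purified RbFox RRM, wild type or mutant, was incubated for 10 min in 50 µL with 1 nM of a 5′-radiolabelled RNA pool carrying 7 randomized nucleotides, whose flanks were annealed to DNA oligonucleotides, over a series of increasing protein concentrations. Unbound RNA was resolved on 8% native PAGE, cut out, reverse-transcribed, barcoded by PCR and sequenced on an Illumina HiSeq 2500. Relative association constants were derived from changes in read counts for each RNA species versus the control reaction and normalised to the cognate motif.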"}
{"binder": "B1", "binding signal": "0.00752 KA relative to UGCAUGU"}
{"binder": "B2", "binding signal": "0.0169 KA relative to UGCAUGU"}
{"binder": "B3", "binding signal": "0.00289 KA relative to UGCAUGU"}
{"binder": "B4", "binding signal": "0.00251 KA relative to UGCAUGU"}
{"binder": "B5", "binding signal": "0.00473 KA relative to UGCAUGU"}
{"binder": "B6", "binding signal": "0.0198 KA relative to UGCAUGU"}
{"binder": "B7", "binding signal": "0.0113 KA relative to UGCAUGU"}
{"binder": "B8", "binding signal": "0.0117 KA relative to UGCAUGU"}
{"binder": "B9", "binding signal": "0.013 KA relative to UGCAUGU"}
{"binder": "B10", "binding signal": "0.0146 KA relative to UGCAUGU"}
{"binder": "B11", "binding signal": "0.00383 KA relative to UGCAUGU"}
{"binder": "B12", "binding signal": "0.00446 KA relative to UGCAUGU"}
{"binder": "B13", "binding signal": "0.00775 KA relative to UGCAUGU"}
{"binder": "B14", "binding signal": "0.0101 KA relative to UGCAUGU"}
{"binder": "B15", "binding signal": "0.0183 KA relative to UGCAUGU"}
{"binder": "B16", "binding signal": "0.00402 KA relative to UGCAUGU"}
{"binder": "B17", "binding signal": "0.0222 KA relative to UGCAUGU"}
{"binder": "B18", "binding signal": "0.0151 KA relative to UGCAUGU"}
{"binder": "B19", "binding signal": "0.00903 KA relative to UGCAUGU"}
{"binder": "B20", "binding signal": "0.00663 KA relative to UGCAUGU"}
